Results from the supplement of paper PMC3334620.
The full ranking holds about 33,000 sequences; the median of “E-score (-0.5 to 0.5)” is about -0.054, and the highest 2% start at about 0.39. This is one part of the list.

Target: Ylr278c (UniProt Q05854)
Experiment: PBM E-score (8-mer binding enrichment) (E-score (-0.5 to 0.5)); higher = stronger / more preferred TF binding; most listed sequences are background and not binding sites
Conditions: protein concentration: 200 nM; construct: GST-DNA-binding domain
Procedure, shortened: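 Yeast transcription factors, full-length or as DNA-binding domains, were expressed with a GST tag using PURExpress in vitro transcription/translation. At about 100-200 nM they were applied to universal all-10-mer Agilent arrays, double-stranded by primer extension on fresh or once-stripped slides. Fluorescent anti-GST detected bound protein, and masliner normalised the scans. E-scores for ungapped eight-base words, pooled with reverse complements, came from the Universal PBM Analysis Suite.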

Sequence | PBM E-score
AAAAGGCT | -0.0866
ACTAGGTA | -0.206
CCGACATA | 0.179
AACTACAT | -0.161
ACTTCTAT | -0.216
CCTCCAGG | -0.249
ATGCACGA | -0.138
CACAAACC | -0.0749
CTCAGGAC | -0.159
ACATTCCT | -0.0674
CATCTCTA | -0.17
AAGAACCG | 0.158
GACCGCAA | 0.176
GCGGTTCA | 0.0173
GCAACCTA | -0.299
CCCCCAAG | -0.267
AGCCGAAC | 0.138
CCAGCACG | -0.15
GCCAAAAA | -0.158
ATAAACAC | -0.0977
CGCCGATC | 0.377
TGGGACAA | -0.11
ACGAACAG | -0.115
ACGATCTG | -0.168
AGCAGGGC | -0.124

Sequence | PBM E-score
GCACCGCC | 0.191
GCATGAAA | -0.201
CGCCCTGA | -0.0097
CTGGTATC | -0.104
AAGACATT | -0.0452
GATCGGTA | 0.265
ACATGGAG | -0.0163
GAGCTCCA | 0.0103
ATAATTAA | 0.0921
AGCATCAC | -0.21
ACAAGTGT | -0.209
CGTCAGTA | -0.231
AAAACGAG | -0.146
GAGGGAGC | -0.108
CCGGCGAG | 0.353
AGGTTTAA | 0.0267
TGATATAA | -0.223
ATCCCCTG | -0.16
ACTGCTTG | -0.0481
ACTACAGA | 0.00882
ATCGCGCA | 0.00622
GAACACAA | -0.142
GTCATCAC | -0.306
GCCTCTCC | -0.0795
AATATTAG | -0.202

Sequence | PBM E-score
ATGCTGAA | -0.0562
AAGCCATC | 0.0394
ATTAGTTA | 0.0343
CAGCCGAC | 0.0597
TCCTTAGA | -0.155
CACGTCCA | -0.286
AGACCTGA | -0.13
ATTCAGTG | 0.0848
AGACTATC | -0.248
TAGGGAGA | -0.0303
AGGCGTGC | -0.0476
ACAGTAGG | -0.2
AGCGCACG | 0.0656
AGAGGATG | -0.0287
AACACAGG | -0.137
ACCTCACG | -0.195
CTAATGCC | 0.126
GGTATCGA | -0.0372
CGTGAACC | 0.0242
AGTTCGAA | 0.0146
CTTCGGTA | 0.0846
GCCTCTTA | -0.109
GTAACAAA | 0.00209
CACTGACC | 0.0158
CTCTCAAC | -0.0992

Sequence | PBM E-score
CGATTACC | 0.133
AGGCTAAG | -0.206
AGACAAAT | -0.121
CTTCGCTA | -0.0775
TCAGAGAA | -0.257
ACCGTATC | 0.124
CATATAAG | -0.156
CTTCATAA | -0.0885
CCACTAGG | -0.292
AATACCGC | 0.268
ACTTCCAT | 0.135
GGGTCCTA | -0.0538
CATTGACC | -0.0145
CGACAACA | -0.00857
ATTTTCCA | 0.0304
GGTCGCAC | -0.0112
GAGCTACC | -0.0733
GCTGTGCC | 0.014
CCAATAAG | -0.191
TGCCCGAA | 0.00494
GAGAAGCC | 0.132
ACGCCTTA | -0.184
GTATCCGA | 0.291
CCACGGAA | 0.34
GAAGTCGC | -0.0286

Sequence | PBM E-score
ATGGGGCC | -0.172
AACAGAGA | -0.0134
CTATGTTC | -0.00542
CAATGAAG | -0.173
AATAGTAT | 0.0535
CCATCAAC | -0.198
GCCAGCGA | -0.266
AGACCACT | -0.0955
AATAAGTC | -0.164
AACGGTTA | -0.112
AACTTATT | 0.107
ACACTAGC | -0.183
AACTGTAG | -0.24
AAGTATCC | -0.0705
CGGACACG | 0.306
AAATACAA | 0.00888
CGGGGGTC | 0.256
CACTTCGC | -0.169
GCCTGTAC | -0.0696
CCGGCTCG | 0.304
CGACGAGA | 0.0179
GGGAACCC | 0.124
CATGAAAA | -0.161
TACATCAA | -0.14
AGATTTGG | -0.127

Sequence | PBM E-score
CCGACTCG | 0.224
CACAACCA | 0.0195
GAGTGGGC | -0.0288
AATTCTGC | 0.0901
AAGCGGCG | 0.222
AACACTGA | -0.0662
GCAGAGCC | -0.128
CTATTGCC | -0.0226
AACTCATC | 0.054
GGGCTAAC | -0.163
CGGCGTGC | 0.246
AACGGAAG | 0.0937
CCGTTCAA | 0.189
GTAATCCA | 0.103
AGAATCAA | -0.031
CCGAAACC | 0.241
ACTCCATG | 0.0943
CACGCTAG | -0.166
GTGCTACA | -0.282
GGATCCCC | 0.33
CATCTGCA | -0.0913
CTTGGCCC | -0.197
GTTGCCCA | -0.0193
AGCTTGTG | -0.25
TTCGAAAA | 0.0013

Sequence | PBM E-score
TAGCAGAA | -0.0598
ATTTAGCA | -0.154
AGGATGAG | -0.265
ACGTGGAA | 0.00293
AGGGAGAC | -0.0299
CCTCTGGC | -0.0747
ATACTCCC | 0.243
AAGTAGTA | -0.204
CGCGAATC | 0.0146
ACCAAGAA | -0.00132
CACTCACC | -0.124
AAGGCTCT | -0.214
AGTCCCCC | -0.261
AGAAGAAT | 0.00676
ATGTCCCC | 0.042
ATTACTTC | -0.0841
CCTTTGGA | -0.189
CTTATATC | 0.00366
AGGATAGA | -0.124
AGATCCCC | 0.162
CCTAATCA | -0.0371
CTCTTAAA | 0.0697
AGTCTCGG | 0.223
ATGGCATA | -0.202
AGCCCATG | -0.131

Sequence | PBM E-score
CGACTATA | -0.0135
CTATCCAC | -0.0748
AGCCCTAA | -0.0219
ACACACGA | -0.0369
ACTGGATC | -0.0196
ATACTGCA | 0.114
CGCCACTC | 0.114
CAGATCAG | -0.13
AAAGCGCC | 0.0702
CGTTCCTA | -0.108
AAATGAAT | -0.0825
AGATAATA | -0.121
AGAGAAAT | -0.0493
AAACGTGG | -0.234
GAGGTGCA | 0.13
ACCATGAT | -0.11
CTAGTCAA | -0.149
GGGTAGAC | -0.0811
CGGCCAAG | 0.204
TTGGCAAA | -0.108
CTCTTGCA | -0.255
TAATGGCA | -0.163
ATCTCACC | 0.0654
ACCTTGAC | -0.12
ACATCCTC | 0.0598

Sequence | PBM E-score
CGCTCGCC | 0.168
CTCCGCGA | 0.403
AGTCTCCA | -0.312
GCTCAAGA | -0.18
CTGTATTC | 0.133
GGTGTGTA | -0.176
CCGAATCC | 0.341
CCGATGAG | 0.258
CCATTGCC | 0.0262
ACGCTAAT | 0.105
CAGGACGG | -0.00316
ATCTCAAT | -0.0596
ACAGTGCT | -0.163
ATTTAAAC | -0.0196
AGTCACTG | -0.227
CTCCTTAA | 0.0108
GGCTGGAC | -0.177
ACGAACTC | 0.0871
ATATGTCG | -0.00558
TAACCTTA | -0.161
AATATACA | -0.0821
CGTGTTCA | -0.173
GGTGGTGA | 0.0539
GGACGGTA | 0.0532
AGGACGAT | -0.165

Sequence | PBM E-score
AGGAACCG | 0.171
CACGCGAC | -0.0553
CGCGCATA | 0.113
ATCGGAAT | 0.443
CCTCTGGA | -0.0492
ACATAAGG | 0.0479
GCCTGTCA | -0.159
AACTGACG | -0.0953
CCGTTCGC | 0.0601
AGTTGAAG | -0.0893
CCGCAGCC | 0.265
CACATAAC | -0.214
ACACCCTA | -0.263
AAGCAACC | -0.0861
GGTTACTA | -0.0127
AACACATC | 0.0521
ATCCGACG | 0.367
AGAGCGCT | -0.138
GCGACGAA | -0.0396
ACGTAAAA | -0.139
CCTTTAAA | -0.18
AAGCAATG | 0.0606
TAAGGCTA | -0.251
AAGAGATT | 0.147
CCGCACGC | 0.137

Sequence | PBM E-score
ACCTTACA | -0.138
CCCTTGTC | -0.128
GGAGATAA | 0.256
ATAGTGCC | -0.0523
AGGATCCC | 0.113
GCTCCTAA | -0.108
ACACGCAG | -0.163
GGGATAAA | 0.134
GGTCAAAC | -0.0475
CCCTCGCA | -0.107
GCAACTGA | -0.127
GCTCAGAA | -0.103
GTCGGAAC | 0.413
ACTTTAAG | 0.0426
CCTTTTGC | -0.121
ACGCCTGC | -0.274
GCATCCGC | 0.0589
AAACAGAA | -0.207
CCTCACTA | -0.103
ATCGGCCC | 0.229
TATTAGGA | -0.173
CGGCGTAA | 0.247
CTCATACA | -0.0546
AATTCCAA | -0.00843
CTTCCAGA | -0.233

Sequence | PBM E-score
GCATGTGA | -0.13
GACATGCA | -0.0798
ATGGGTCG | 0.21
GTCGCATA | -0.0845
CGACAGCA | 0.0157
AGGCCTTC | -0.221
CGACCTTC | 0.194
ACCTGAGT | -0.0894
AGATACAG | -0.0599
GATCTCGA | 0.0789
ACTGGCAG | -0.0279
ATGAATGG | 0.115
CGCAATTC | 0.201
ACGCGTAA | -0.088
AGGCTCAA | -0.218
ACCCGGAT | 0.238
CGGACCAG | 0.295
ACACGGCG | 0.216
CAAAGCGC | 0.188
ATCCCGCC | 0.297
ACCACAGG | -0.095
GGCTATAA | -0.0937
AGATAGAT | -0.279
ATCTCACG | 0.112
ATCCTTAG | -0.193

Sequence | PBM E-score
AACCTCAT | -0.143
GCAACAGA | 0.0725
GTATACGA | -0.0238
AATGAACA | -0.117
CAAAAGGC | -0.115
TTAAACAA | -0.131
CATCCGGG | 0.3
CATTTTCC | 0.198
GGCACGCC | -0.0493
ATGTATAC | -0.0561
CATTGATC | 0.102
GAACTTTA | 0.0654
CGGGCCTA | 0.198
GACGAGCC | -0.155
CGGCCACA | 0.191
GCATGCTA | -0.16
ACGACCCA | -0.0581
AACCGCAA | 0.16
GTCTCTAA | -0.172
CCAAAGCC | -0.0219
ACACAGTC | -0.116
CCGTCTAG | 0.0867
CTGATGCC | -0.0342
CTTTCTCC | 0.227
CTAATCAC | 0.0671

Sequence | PBM E-score
ACTACATA | -0.19
GCCCTAAC | 0.00741
AAGGACTG | -0.215
GTTCCCGA | 0.139
CTCATGGC | -0.0203
TAGCTATA | -0.239
CTCACCAA | 0.0299
ACGTGCGA | -0.0587
ATGGAATC | -0.0141
CAGCACCC | -0.0668
GCTGGCAC | -0.288
ATTTGTCC | 0.277
ATCAAGAG | -0.105
ATTGGACC | 0.0491
CCTCAGCC | -0.106
GGTCAACC | -0.0377
GAGAGCAA | -0.0652
AGCTTTAA | -0.101
GAATCGTA | -0.138
